The values that follow come from PubChem BioAssay AID1963576 (National Center for Advancing Translational Sciences (NCATS), 2024).

The structures appear in SMILES notation. The campaign covered roughly 46,000 compounds. About 60 (0.1%) were called active. Roughly 3% stayed inconclusive and do not appear here. The call rests on the fitted dose curve; in most records, active means well fitted inhibition curve with a large enough effect; inconclusive means small, poorly fitted or top-dose-only effect; inactive means no such curve, though single readings can be large or run the other way. The list shows a part of the results.
Potency means the concentration at half of the fitted maximal effect.

This assay is described as follows: Primary qHTS assay for Inhibitors of ovarian cancer metastasis using an organotypic tumor microenvironment (TME) model. Further: nearly all actives have a fitted effect of over 65% in size.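 On Potency: count of GFP cancer cells still attached after washing and fixation.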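 On activity change, negative = inhibition: plate controls were DMSO wells for no effect and tomatine positive control wells for full effect.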 The following applies: SKOV3ip1-GFP adhesion/invasion on 3D omental model, fluorescence; series mostly up to 45.8 µM; activity change, negative = inhibition: at the top concentration. In short, it runs like this: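 Adhesion/invasion was scored as fixed GFP-labeled SKOV3ip1 cell counts (488/509 nm), normalized to DMSO and tomatine controls. Cancer cells in serum-free medium, with four compound doses (0.36-46 umol/L), sat 2 hr at RT then 16 hr at 37 C on a 48 hr fibroblast/mesothelial/ECM culture.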
Background: qHTS replaces the single test concentration by a dilution series.
`COC(=O)c1ccc(NC(=O)c2cc(S(=O)(=O)N3CCOCC3)cn2C)cc1`: the “activity change, negative = inhibition” value is inactive: 18.4%. With `CC(=O)Nc1ccc(NS(=O)(=O)c2c(C(=O)N3CCCCCC3)c(C)n(C)c2C)cc1`, the “activity change, negative = inhibition” value is inactive: 0.296%. Still for that read-out and setting: with `Cc1ccc(-n2ncc(C(=O)NCc3ccc4c(c3)OCO4)c2C2CCN(C(=O)OC(C)(C)C)CC2)c(C)c1` the figure was inactive: -0.567%; with `Cc1ccc(OCCSc2nnc(-c3cccs3)o2)cc1`, inactive: 12.7%. Same read-out and setting: with `Cc1oc2cc3oc(=O)c(CCC(=O)NCCc4ccccc4F)c(C)c3cc2c1C` the figure was inactive: -13.2%; with `COc1ccc(Cn2c(=O)c3oc4ccccc4c3n(CC(=O)Nc3c(C)cccc3C)c2=O)cc1`, inactive: -4.55%. In the case of `Cc1ccc(C(=O)COC(=O)CCC(=O)Nc2ccc(Oc3ccccc3)cc2)cc1`, the “activity change, negative = inhibition” value is inactive: 1.92%. The same measure, in the same setting: the result for `COc1ccc(NC(=O)Nc2nnc(N3CCCC3)s2)cc1` reads inactive: 2.91%; that for `CN1CCN(C(=O)c2cnn(-c3ccc(F)cc3F)c2C2CCN(C(=O)OC(C)(C)C)CC2)CC1`, inactive: 8.19%.

In the case of `Cc1cc(C)cc(N(CC(=O)NCCc2ccc(Cl)cc2)S(=O)(=O)c2c(C)noc2C)c1`, the result was inactive. For the molecule `Cc1ccc2c(c1)c1c(c(=O)n(-c3ccccc3)c(=O)n1Cc1ccccc1C)n2C`, the “activity change, negative = inhibition” value was inactive: -4.59%. On to `CCC(=O)N1c2ccccc2CC1C(=O)NCc1ccc(CC)cc1` (stereo unspecified), for which the molecule was called inactive. On to `Cc1ccc(NC(=O)c2c(C)oc3ccc(O)c(CN4CCOCC4)c23)cc1`, for which the outcome was inactive. For the molecule `Cc1ccc2c(=O)cc(C(=O)N(Cc3ccc(C(C)(C)C)cc3)C3CCS(=O)(=O)C3)oc2c1` (stereo unspecified), the result was inactive. Same read-out and setting: with `Cc1ccccc1NC(=O)Cn1nc(-c2ccccc2)nc(Cc2ccccc2)c1=O` the entry was “inactive”. In the case of `Cc1ccc(CNS(=O)(=O)c2cnc(N)nc2)cc1`, the “activity change, negative = inhibition” value was inactive: 10.8%. With `COc1ccc(Cn2ccc3nc(C)c(C(=O)NCc4ccc(SC)cc4)cc3c2=O)cc1`, the “activity change, negative = inhibition” value was inactive: 6.3%. Same read-out and setting: with `Oc1ccc(-c2nc3ccc(Cl)cn3c2Nc2ccc(Cl)cc2)cc1` the figure was inactive: -7.04%.

On to `O=C(c1cc2c(Cl)nc3ccccc3c2s1)N1CCCCC1`, for which the “activity change, negative = inhibition” value is inactive: 37.8%. On the same count and under the same terms, with `CCc1ccc2ncc3c(-c4ccc(C)cc4)nn(CC(=O)NCc4ccccc4)c3c2c1` the figure was inactive: 1.32%; with `COc1ccc(CNC(=O)CSc2nnc(C)c3c(C)n(-c4ccccc4)nc23)c(OC)c1`, inactive: 0.487%. Same read-out and setting: with `CC(C)CCNC(=O)Cn1nc(N2CCN(c3ccccc3)CC2)ccc1=O` the figure was inactive: 7.33%; with `Cc1ccccc1Cn1c2ccccc2c2cnn(CC(=O)NC3CCCCCC3)c(=O)c21`, inactive: 1.5%. For `COc1ccc(Br)cc1Cn1nnc(C(=O)Nc2cccc(SC)c2)c1N`, the “activity change, negative = inhibition” value is inactive: 9.54%. `COc1ccc(-c2nc3sc(CCNC(=O)C(=O)Nc4ccc(OC)c(OC)c4)c(C)n3n2)cc1`: the result was inactive. With `CCOC(=O)c1sc2ncn(CC(=O)Nc3ccc(OC)c(Cl)c3)c(=O)c2c1C`, the “activity change, negative = inhibition” value is inactive: 0.395%.

As for `O=C(CSc1nc2ccccc2n1Cc1cccc(F)c1)NCc1ccccc1`, the molecule was called inactive. In the case of `COc1ccc(S(=O)(=O)NCc2nc(-c3ccccc3)no2)cc1`, the “activity change, negative = inhibition” value was inactive: 6.57%. On to `CSc1cccc(NC(=O)c2cc3c(COC(C)=O)cnc(C)c3oc2=O)c1`, for which the “activity change, negative = inhibition” value is inactive: 27.5%. Take `O=C(CC(c1cccs1)N1Cc2ccccc2C1=O)Nc1ccc(F)cc1` (stereo unspecified): the result was inactive. Regarding `COc1cc(CNC(=O)c2cc3n(n2)CCCN(Cc2cccc(F)c2)C3=O)cc(OC)c1OC`, the “activity change, negative = inhibition” value was inactive: 9.59%. On the same count and under the same terms, with `CC(=O)c1cccc(NC(=O)CSc2ncc3c(n2)-c2cc(Cl)ccc2N(Cc2ccccc2)S3(=O)=O)c1` the figure was inactive: 3.28%; with `CN(CC(=O)Nc1cccc(F)c1)S(=O)(=O)c1ccc2c(c1)n(C)c(=O)c(=O)n2C`, inactive: 6.82%. Take `CN1CCN(C(=O)c2ccc3c(c2)N(Cc2ccc(C(F)(F)F)cc2)C(=O)c2ccccc2S3)CC1`: the call was inactive. On the same count and under the same terms, with `COc1ccc(OC)c(C2C(C(=O)Nc3ccc(C)cc3)=C(C)Nc3nnnn32)c1` (stereo unspecified) the entry was “inactive”.

In the case of `Cc1ccc(NC(=O)c2ccc(CN3CC(=O)N4CCCCC4C3=O)cc2)c(Cl)c1` (stereo unspecified), the “activity change, negative = inhibition” value is inactive: -11.5%. Take `Cc1ccc(C)c(Nc2nn3c(=O)c4ccc(C(=O)NCc5ccccc5)cc4nc3s2)c1`: the call was inactive. As for `COc1ccc(-c2ccc(=O)n(CC(=O)Nc3cc(OC)ccc3OC)n2)cc1`, the “activity change, negative = inhibition” value was inactive: -10.8%. On the same count and under the same terms, with `Cc1cccc(-n2ncc3c(NNC(=O)c4ccccc4Cl)ncnc32)c1` the figure was inactive: -2.11%; with `CCOC(=O)c1cccc(NC(=O)Nc2c(C)n(C)n(-c3ccccc3)c2=O)c1`, inactive: -6.11%; with `O=c1[nH]c(C2CCCN(S(=O)(=O)c3ccccc3)C2)nc2c1nnn2Cc1ccccc1Br` (stereo unspecified), inactive: 2.23%. The same measure, in the same setting: with `COc1cc(NC(=O)Cc2noc3ccccc23)cc(OC)c1OC` the figure was inactive: 9.76%; with `CCOC(=O)c1ccc(NC(=O)CC(C)n2nc(C)cc2C)cc1` (stereo unspecified), inactive: -9.58%. Take `O=C(CN1C(=O)COc2ccc(S(=O)(=O)N3CCCCCC3)cc21)N1CCN(c2ccc(Cl)cc2)CC1`: the molecule was classed as inactive. Same read-out and setting: the result for `Cc1ccc(C)c(CN2C(=O)c3ccccc3S(=O)c3ccc(C(=O)N4CCCCC4)cc32)c1` (stereo unspecified) reads “inactive”. On to `CCS(=O)(=O)NCCc1csc2nc(-c3ccc(OC)cc3)nn12`, for which the “activity change, negative = inhibition” value is inactive: 1.03%. Still for that read-out and setting: the result for `COc1ccc(OC)c(S(=O)(=O)NCCS(=O)(=O)N2CCN(c3ccccc3F)CC2)c1` reads inactive: -20%. `CCc1cnc2c(c1SCc1cc(OC)cc(OC)c1)c(=O)n(C)c(=O)n2C`: the “activity change, negative = inhibition” value was inactive: -5.06%.

Consider `CCCCN(CC)CCCNC(=O)c1cn(C)c(=O)c2c1c1ccccc1n2C`, for which the “activity change, negative = inhibition” value was inactive: -10%. Consider `Cc1nn(CCC(=O)Nc2cccc(C#N)c2)c(C)c1S(=O)(=O)N1CCCCC1`, for which the “activity change, negative = inhibition” value is inactive: 1.68%. With `Cc1cccc(C)c1NC(=O)Cn1cc(C(=O)C2CC2)c2ccccc21`, the “activity change, negative = inhibition” value is inactive: 6.39%. Still for that read-out and setting: the result for `COc1cccc(C(=O)Nc2nnc(S(=O)(=O)N3CCCc4ccccc43)s2)c1` reads inactive: 5.11%; that for `O=S(=O)(NCC(c1ccccc1)N1CCc2ccccc21)c1ccc(Cl)cc1` (stereo unspecified), inactive: -7.7%; that for `C=CCc1ccccc1OCCSc1nc(-c2ccccc2F)nc2cc(=O)[nH]n12`, inactive: 4.14%. With `CSc1ncc(C(=O)NCc2cccc(C)c2)c(-c2ccccc2)n1`, the “activity change, negative = inhibition” value was inactive: -0.148%. For the molecule `COc1ccccc1/C=C/C(=O)Nc1nc2n(n1)C(c1ccc(F)cc1)C=C(c1ccccc1)N2` (stereo unspecified), the “activity change, negative = inhibition” value was inactive: 13.8%. In the case of `Cc1cc(C)cc(-n2ccnc2SCC(=O)Nc2ccccc2F)c1`, the molecule was classed as inactive. For the molecule `Cc1cccc(NC(=O)c2c(NC(=O)c3ccccc3)sc3c2CCC3)c1`, the “activity change, negative = inhibition” value is inactive: 6.85%. The same measure, in the same setting: with `COc1ccc(CNC(=O)Cn2cccc2C(=O)c2ccccc2C)cc1` the figure was inactive: -2.55%; with `Cc1cccc(N2CCN(c3nc4ccccc4c4nnc(C)n34)CC2)c1C`, inactive: -1.47%; with `CCN(CC)C(=O)c1sc2c(c1C)c(=O)n(-c1ccc(OC)cc1OC)c(=O)n2CC(=O)Nc1ccccc1`, inactive: 2.43%. On the same count and under the same terms, with `COC(=O)c1ccc(NC(=O)CC2C(=O)N(c3ccccc3)C(=O)N2Cc2cccs2)cc1` (stereo unspecified) the figure was inactive: 3.8%; with `COc1ccc(C(=O)c2cn(Cc3ccccc3OC)c3cc4c(cc3c2=O)OCO4)cc1`, inactive: -11.3%; with `CC(C)c1ccc(C2NC(=O)c3c(sc4c3CCN(C)C4)N2)cc1` (stereo unspecified), inactive: -0.347%. `CCc1cccc(NC(=O)CC(c2ccc(OC)cc2)N2Cc3ccccc3C2=O)c1` (stereo unspecified): the “activity change, negative = inhibition” value was inactive: -12.6%. Consider `CCOc1ccccc1NC(=O)Cn1c(=O)n(-c2ccc(C)cc2)c(=O)c2c1cnn2C`, for which the call was inactive.

As to `Cc1cc(C)cc(NC(=O)CCn2cnc3ccccc3c2=O)c1`, the “activity change, negative = inhibition” value is inactive: 11.3%. Same read-out and setting: with `CC(=O)N1CCCC1c1nc2ccccc2n1Cc1cccc(C)c1` (stereo unspecified) the figure was inactive: 11.1%; with `CSc1ccc(CCNC(=O)c2ccc(-n3c(C)cc4c3CCC(C)C4)cc2)cc1` (stereo unspecified), inactive: -9.36%. Consider `COc1ccc2c(c1)c(CC(=O)Nc1c(C)cccc1C)c(C)n2C(=O)c1ccc(Cl)cc1`, for which the result was inactive. Turning to `CCCCC(=O)OC1=CN(Cc2ccccc2)S(=O)(=O)c2ccccc21`, the “activity change, negative = inhibition” value was inactive: 2.59%. Regarding `Cc1ccc(C)c(N2CCN(C(=O)c3c(C)oc4nc(C)nc(N5CCOCC5)c34)CC2)c1`, the molecule was classed as inactive.

Regarding `CCC(C)NC(=O)Cn1c(=O)n(-c2ccc(Cl)cc2)c(=O)c2c3c(sc21)CCCC3` (stereo unspecified), the result was inactive. Turning to `CCOc1ccc(N(CC(=O)OC)S(=O)(=O)c2ccc3c(c2)n(C)c(=O)c(=O)n3C)cc1`, the “activity change, negative = inhibition” value is inactive: -2.13%. Same read-out and setting: with `COc1ccc(NC(=O)c2ccc(NC(=O)CCS(=O)(=O)c3cccs3)cc2)cc1Cl` the figure was inactive: -0.94%. For the molecule `Cc1ccc(-n2nnnc2SCC(=O)NCCc2ccccc2)cc1C`, the molecule was classed as inactive. Regarding `C=CCC(CC=C)(CNC(=O)C(=O)Nc1ccc(Br)cc1)c1ccc(OC)c(OC)c1`, the “activity change, negative = inhibition” value is inactive: -1.55%. As to `O=C(NCC(c1ccc2c(c1)OCO2)N1CCN(c2ccccc2)CC1)c1ccc(F)c(F)c1` (stereo unspecified), the “activity change, negative = inhibition” value was inactive: -4.08%. With `O=C(Nc1ccc(F)cc1F)C1CCN(C(=O)c2cnn(-c3ccccc3)c2-n2cccc2)CC1`, the outcome was inactive.

Consider `Cc1ccc(OCCCn2c(-c3ccc(Cl)cc3)nc3ccccc3c2=O)cc1C`, for which the “activity change, negative = inhibition” value was inactive: 1.38%. Same read-out and setting: the result for `CCCN[C@H]1CCc2nc(N)sc2C1` reads inactive: -5.55%; that for `CCc1nnc(NC(=O)CSc2nccn2Cc2ccc(Cl)cc2)s1`, inactive: -6.42%; that for `CCCc1nnc(SCc2cc(=O)c3c(C)cc(C)cc3[nH]2)n1C`, inactive: 5.17%. Still for that read-out and setting: the result for `Cn1cccc1-c1cc2n(n1)CCC(=O)N2CCCC(=O)NCc1cccc(Cl)c1` reads inactive: 4.93%; that for `CCc1ccc(CNC(=O)Cn2nc(C)c3nn(-c4ccc(Cl)cc4)c(C)c3c2=O)cc1`, inactive: -7.32%. On to `COCCNC(=O)c1ccc2c(c1)ncn2-c1cc(C)ccc1OC`, for which the “activity change, negative = inhibition” value was inactive: 0.731%. Still for that read-out and setting: with `CCOc1ccc(NS(=O)(=O)c2c(C)nc3sc(CC)nn3c2=O)cc1` the figure was inactive: 1.04%; with `CC(C)(C)Cn1c(N)nc2ccc(-c3[nH]c(C(C)(C)C)nc3-c3ccc(F)cc3)nc21`, inactive: 2.82%. On to `O=C(NCc1cccc(Cl)c1)c1cnc(N2CCOCC2)c2ccccc12`, for which the outcome was inactive. For the molecule `CCS(=O)(=O)c1ncc(N(Cc2ccccc2)Cc2ccco2)c(C(=O)Nc2ccccc2C)n1`, the “activity change, negative = inhibition” value was inactive: 3.67%. As for `O=C(Nc1cc(-c2cccc(Cl)c2)nn1-c1ccccc1)c1ccccc1F`, the outcome was inactive. Take `CCc1ccccc1S(=O)(=O)Cc1ccc(C(=O)NCCc2ccc(Cl)cc2)o1`: the “activity change, negative = inhibition” value was inactive: 1.57%. Regarding `Cc1ccc(C)c(NC(=O)c2nc(S(=O)(=O)Cc3ccc(F)cc3)ncc2Cl)c1`, the Potency was active: 11.2 µM. Turning to `CSCCC(NS(=O)(=O)c1ccc2c(c1)oc(=O)n2C)C(=O)NCc1ccc(Cl)cc1` (stereo unspecified), the “activity change, negative = inhibition” value is inactive: -15.4%. Still for that read-out and setting: with `Cc1nnc(NC(=O)CSc2nccn2Cc2ccccc2)s1` the figure was inactive: 40%. For the molecule `Cc1ccc(C(=O)Nc2cc(-c3cn4cccnc4n3)ccc2C)cc1C`, the result was inactive.
